Results: publication PMC12040169 (PLOS Biology, 2025)
The list shows a part of the results.

The compounds below were run on T1, C. trachomatis L2/434/Bu expressing GFP (CTL2-GFP). Conditions: total inclusion area; 28.5 h, 10 µM; inhibitor.
T1 construct: L2/434/Bu GFP intracellular growth in HeLa cells
Set-up: species or system HeLa; C. trachomatis total inclusion area by high-content imaging, normalised to DMSO
Procedure, shortened: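 Imaging read-out: GFP inclusions and Hoechst nuclei captured by high-content imaging after fixation. Inclusion area/number = chlamydial growth; nuclei count = host cell viability. MIC calculated per earlier method.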
With Cc1nccn1CCNC(=O)c1ccccc1Cn1cccn1 [CBK281979] the “% of control remaining” value was 71.9776. For O=C(O)c1cccc(Sc2nc3cc(Cl)c(Cl)cc3nc2N2CCCC2)c1 [CBK093588], the “% of control remaining” value was 88.1935. With Cc1ccc(S(=O)(=O)N(CC(O)CN2C(=O)NC(C)(C)C2=O)c2ccccc2[N+](=O)[O-])cc1 (stereo not drawn) [CBK263572] the “% of control remaining” value was 73.4877. With CC1CCCN(C(=O)Cn2ncn3c(cc4ccsc43)c2=O)C1 (stereo not drawn) [CBK284245] the “% of control remaining” value was 97.2813. For CCn1cc(NS(=O)(=O)c2ccc(N3CCCC3=O)cc2)cn1 [CBK305922], the “% of control remaining” value was 36.8271. With COC(=O)CCN(C)CCC(=O)OC [CBK264539C] the “% of control remaining” value was 101.011. In the case of CCCNc1nc(O)cc(C(F)(F)F)n1 [CBK000214], the “% of control remaining” value is reported as 105.829. N#Cc1c(NC(=O)CSc2nnnn2-c2ccc(C(=O)O)cc2)sc2c1CCCC2 [CBK299876] was tested, and the “% of control remaining” value was 108.261. For CN(C)C(=O)CN1C(=O)CC2(C1=O)C(=O)N(C)c1ccc(Cl)cc12 (stereo not drawn) [CBK075232], the “% of control remaining” value was 96.867. With NC(=O)C1CCN(CC(O)COc2ccc(-c3ccccc3)cc2)CC1 (stereo not drawn) [CBK269528] the “% of control remaining” value was 62.0566. For CC1(C)CC(NC(=O)c2cc(Cn3ccc4ccccc43)[nH]n2)CCO1 (stereo not drawn) [CBK307092], the “% of control remaining” value was 91.5395. With Cc1nc2ccc(C(=O)NC3=NC(=O)CS3)cn2c1N(C)Cc1cccs1 [CBK146110] the “% of control remaining” value was 127.182. In the case of Cc1nc2c3c(sc2c(=O)[nH]1)NC(=O)CC3c1ccccc1 (stereo not drawn) [CBK288094], the “% of control remaining” value is reported as 84.1217. In the case of O=C(Cn1cnc2c(cnn2-c2ccc(F)cc2)c1=O)Nc1ccc(F)cc1F [CBK287537], the “% of control remaining” value is reported as 93.8534. CN1CCN(C(=O)c2c(NS(=O)(=O)c3cc(F)c(Br)cc3F)sc3c2CCCC3)CC1 [CBK050419] was tested, and the “% of control remaining” value was 99.7341. For CCCC/C=C/c1nccnc1NCC1CC1 [CBK037268], the “% of control remaining” value was 76.6676. For C=CCn1c(-c2sc(NC(=O)c3ccc(CNC(=O)NC(C)C)cc3)nc2C)n[nH]c1=S [CBK297764], the “% of control remaining” value was 86.4015. For O=C(c1ccc(-c2ccc(F)cc2)o1)N1CCC(n2c(=O)oc3ccccc32)CC1 [CBK286175], the “% of control remaining” value was 100.972. For O=C(NOCc1ccccc1)c1nn(-c2ncccn2)c2ccccc12 [CBK048503], the “% of control remaining” value was 99.2436. In the case of COc1ccc(-c2cn(-c3cc(Cl)ccc3C)nn2)cc1 [CBK113023], the “% of control remaining” value is reported as 31.9669. In the case of COc1cncc(-c2ccc(N3CCN(C(=O)c4ccco4)CC3)nc2)c1 [CBK037801], the “% of control remaining” value is reported as 86.2981. In the case of O=C1CC(c2ccc(F)cc2)CC(=O)C1=CNCCN1CCN(C(=S)Nc2ccccc2)CC1 (stereo not drawn) [CBK264784], the “% of control remaining” value is reported as 134.574. CN(C)/C=N/c1ncnc2c1nc(Br)n2C1CC(O)C(CO)O1 (stereo not drawn) [CBK201277] was tested, and the “% of control remaining” value was 138.501. For COc1ccc(C(=O)N2CCC3(CCCN(C(=O)c4ccc5[nH]c(=O)[nH]c5c4)C3)C2)cc1OC (stereo not drawn) [CBK137086], the “% of control remaining” value was 90.8457. O=C(CCN1C(=O)/C(=C/c2ccc(F)cc2)SC1=S)NNC(=O)c1cccnc1 [CBK262862] was tested, and the “% of control remaining” value was 54.2801. CC(C)(C)C1CCc2c(sc(NC(=S)NC(=O)c3cc4ccccc4o3)c2C(N)=O)C1 (stereo not drawn) [CBK268635] was tested, and the “% of control remaining” value was 112.355. In the case of CCc1nnc(NS(=O)(=O)c2ccc(N/C=C3\C(=O)N(c4ccc(Cl)cc4)N=C3C)cc2)s1 [CBK262416], the “% of control remaining” value is reported as 26.5858. With c1ccc(N2CCN(c3cc(-c4cc5ccccc5s4)ncn3)CC2)nc1 [CBK091084] the “% of control remaining” value was 86.2673. With Cc1ccc(C(=O)N2Cc3ccccc3C2)cn1 [CBK200318] the “% of control remaining” value was 104.561. In the case of Nn1c(SCC(=O)Nc2cccc3ccccc23)nnc1-c1ccccc1Cl [CBK266080], the “% of control remaining” value is reported as 125.226. Cn1c(Sc2ccc(C#N)cn2)nnc1-c1ccco1 [CBK297756] was tested, and the “% of control remaining” value was 108.668. CCCCOc1ccccc1NC(=O)CC1NCCNC1=O (stereo not drawn) [CBK269299] was tested, and the “% of control remaining” value was 105.223. With CCc1ccc2c(c1)C(CCNC(=O)c1c(C)noc1C(F)F)C(=O)N2 (stereo not drawn) [CBK304090] the “% of control remaining” value was 68.7994. For CC(C)(C)Nc1cc(NCCc2ccccc2)nc(N)n1 [CBK012708], the “% of control remaining” value was 90.0134. O=C1NCCN1C1CCN(c2ncnc3ccccc23)CC1 [CBK304896] was tested, and the “% of control remaining” value was 92.8166. Cc1nonc1CNC(=O)N1CCOCC(C2CCC2)C1 (stereo not drawn) [CBK304086] was tested, and the “% of control remaining” value was 111.235. In the case of CC1CC(=O)C2C=C(c3ccc(Br)cc3)NN=C2C1 (stereo not drawn) [CBK021352], the “% of control remaining” value is reported as 63.4168. In the case of Cc1ccc(C(=O)O)cc1S(=O)(=O)N(C)CCO [CBK267167], the “% of control remaining” value is reported as 118.632. For c1ccc(CCNc2cncc(-c3cc4ccccc4o3)n2)nc1 [CBK066036], the “% of control remaining” value was 92.6399. In the case of CCC(C)(C)c1ccc(S(=O)(=O)N2CCCN(Cc3ccnc4ccccc34)CC2)cc1 [CBK062865], the “% of control remaining” value is reported as 87.5406. CCOC(=O)c1cnn(C2CCCN(Cc3cccc(O)c3)C2)c1 (stereo not drawn) [CBK304046] was tested, and the “% of control remaining” value was 40.9177. For C=CCn1c(S)nnc1-c1ccc(Br)cc1 [CBK096756], the “% of control remaining” value was 75.524. O=C(OCC(=O)c1cccc2ccccc12)c1cc2ccccc2cc1O [CBK265526] was tested, and the “% of control remaining” value was 82.0779. Cc1cc(Br)ccc1C(=O)Nc1ccc2ncccc2c1 [CBK159814] was tested, and the “% of control remaining” value was 89.5009. Cc1nc(NS(=O)(=O)c2cc(Br)c(Cl)s2)sc1C(=O)O [CBK045560] was tested, and the “% of control remaining” value was 87.8645. With CC1=NS(=O)(=O)NC2=C1CCCC2 [CBK022998] the “% of control remaining” value was 78.1224. O=C(c1ccc2nccnc2c1)N1CCN(c2ccccc2)CC1 [CBK200209] was tested, and the “% of control remaining” value was 74.5151. With CN(Cc1ccncn1)C(=O)c1cn(CC2CCCO2)nn1 (stereo not drawn) [CBK307081] the “% of control remaining” value was 71.0989. With O=[N+]([O-])c1ccc(N2CCN(S(=O)(=O)c3ccc(Cl)cc3)CC2)cc1NCc1cccnc1 [CBK264749] the “% of control remaining” value was 89.8557. With Cc1ccc2c(c1)C(NC(=O)C1CC1)CC1(CCOCC1)O2 (stereo not drawn) [CBK284879] the “% of control remaining” value was 101.642. With O=C(CC1CC1)N1CCCC2(CCN(C(=O)c3cc(F)c(F)cc3F)C2)C1 (stereo not drawn) [CBK131531] the “% of control remaining” value was 97.5121.
